{"source": "a collection of fitness landscapes (doi:10.1016/j.celrep.2020.107928)", "parents": {"B1": {"name": "Caulobacter ParB omega fusion; a variant is named by its letters at X, in order, B8GW30 (parent)", "chain": "MESVVVGEPGMSEGRRGLGRGLSALLGEVDAAPAQAPGEQLGGSREAPIEILQRNPDQPRRTFREEDLEDLSNSIREKGVLQPILVRPSPDTAGEYQIVAGERAWRAAQRAGLKTVPIMVRELDDLAVLEIGIIENVQRADLNVLEEALSYKVLMEKFERTQENIAQTIGKSXSHVANXMRLLXLPDEVQSYLVSGELTAXHARAIAAAADPVALAKQIIEGGLSVRETEALARKAPNLSAGKSKGGRPPRVKDTDTQALESDLSSVLGLDVSIDHRGSTGTLTITYATLEQLDDLCNRLTRGI"}}, "note": "In all, about 81,000 sequences were measured (“one-hybrid fitness for binding NBS DNA”: median about -0.1, highest 2% from about 0.36 on). The list shows a part of the results.", "data": [{"variants_of": "B1", "assay": "one-hybrid fitness for binding NBS DNA (the Noc-binding site; scaled: cognate 1, non-cognate 0); higher = stronger binding", "settings": "with NBS DNA site", "how_it_was_run": "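Bacterial one-hybrid selection in E. coli USO rpoZ- hisB- pyrF- with a HIS3 reporter carrying the site 19 bp from the promoter, screening Caulobacter ParB libraries with four specificity codons randomised (NNS). Cells grew 48 hours at 37°C on M9-minus-histidine plus 0.1 mM IPTG and 5 mM 3-AT. Plasmids before and after selection were Illumina-sequenced, three replicate libraries pooled, and variants under 10 reads dropped. Fitness is the log change in variant-to-wild-type read ratio, rescaled to cognate 1, non-cognate 0.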", "values": [{"variant": "TYQG", "one-hybrid fitness for binding NBS DNA": "≤ 0.2"}, {"variant": "RNVH", "one-hybrid fitness for binding NBS DNA": "≤ 0.2"}, {"variant": "SWLR", "one-hybrid fitness for binding NBS DNA": "≤ 0.2"}, {"variant": "KTKT", "one-hybrid fitness for binding NBS DNA": 0.396}, {"variant": "PVGG", "one-hybrid fitness for binding NBS DNA": "≤ 0.2"}, {"variant": "LNKC", "one-hybrid fitness for binding NBS DNA": "≤ 0.2"}, {"variant": "ATPF", "one-hybrid fitness for binding NBS DNA": "≤ 0.2"}, {"variant": "EMGG", "one-hybrid fitness for binding NBS DNA": "≤ 0.2"}, {"variant": "EWTS", "one-hybrid fitness for binding NBS DNA": "≤ 0.2"}, {"variant": "TVFT", "one-hybrid fitness for binding NBS DNA": "≤ 0.2"}, {"variant": "DRGH", "one-hybrid fitness for binding NBS DNA": "≤ 0.2"}, {"variant": "NIPW", "one-hybrid fitness for binding NBS DNA": "≤ 0.2"}, {"variant": "QDDF", "one-hybrid fitness for binding NBS DNA": "≤ 0.2"}, {"variant": "FGCG", "one-hybrid fitness for binding NBS DNA": "≤ 0.2"}, {"variant": "QKNA", "one-hybrid fitness for binding NBS DNA": 0.378}, {"variant": "MYTG", "one-hybrid fitness for binding NBS DNA": "≤ 0.2"}, {"variant": "HMIC", "one-hybrid fitness for binding NBS DNA": "≤ 0.2"}, {"variant": "QNPL", "one-hybrid fitness for binding NBS DNA": "≤ 0.2"}, {"variant": "RTHN", "one-hybrid fitness for binding NBS DNA": "≤ 0.2"}, {"variant": "TVRV", "one-hybrid fitness for binding NBS DNA": "≤ 0.2"}, {"variant": "ETGA", "one-hybrid fitness for binding NBS DNA": "≤ 0.2"}, {"variant": "QCVD", "one-hybrid fitness for binding NBS DNA": "≤ 0.2"}, {"variant": "GESG", "one-hybrid fitness for binding NBS DNA": "≤ 0.2"}, {"variant": "TGTL", "one-hybrid fitness for binding NBS DNA": "≤ 0.2"}, {"variant": "QCRQ", "one-hybrid fitness for binding NBS DNA": 0.527}, {"variant": "IRND", "one-hybrid fitness for binding NBS DNA": "≤ 0.2"}, {"variant": "KAGA", "one-hybrid fitness for binding NBS DNA": "≤ 0.2"}, {"variant": "MVET", "one-hybrid fitness for binding NBS DNA": "≤ 0.2"}, {"variant": "LRNM", "one-hybrid fitness for binding NBS DNA": "≤ 0.2"}, {"variant": "HSTL", "one-hybrid fitness for binding NBS DNA": "≤ 0.2"}, {"variant": "RNEW", "one-hybrid fitness for binding NBS DNA": "≤ 0.2"}, {"variant": "PVMI", "one-hybrid fitness for binding NBS DNA": "≤ 0.2"}, {"variant": "LFDQ", "one-hybrid fitness for binding NBS DNA": "≤ 0.2"}, {"variant": "HMMS", "one-hybrid fitness for binding NBS DNA": "≤ 0.2"}, {"variant": "ALIS", "one-hybrid fitness for binding NBS DNA": "≤ 0.2"}, {"variant": "IPGG", "one-hybrid fitness for binding NBS DNA": "≤ 0.2"}, {"variant": "TPNW", "one-hybrid fitness for binding NBS DNA": "≤ 0.2"}, {"variant": "STEK", "one-hybrid fitness for binding NBS DNA": "≤ 0.2"}, {"variant": "LGDK", "one-hybrid fitness for binding NBS DNA": "≤ 0.2"}, {"variant": "NAWC", "one-hybrid fitness for binding NBS DNA": "≤ 0.2"}, {"variant": "AIRH", "one-hybrid fitness for binding NBS DNA": "≤ 0.2"}, {"variant": "RIHQ", "one-hybrid fitness for binding NBS DNA": "≤ 0.2"}, {"variant": "DESR", "one-hybrid fitness for binding NBS DNA": "≤ 0.2"}, {"variant": "RTDT", "one-hybrid fitness for binding NBS DNA": 0.284}, {"variant": "QVVP", "one-hybrid fitness for binding NBS DNA": "≤ 0.2"}, {"variant": "NDCG", "one-hybrid fitness for binding NBS DNA": "≤ 0.2"}, {"variant": "GANY", "one-hybrid fitness for binding NBS DNA": "≤ 0.2"}, {"variant": "GHNS", "one-hybrid fitness for binding NBS DNA": "≤ 0.2"}, {"variant": "KSGN", "one-hybrid fitness for binding NBS DNA": "≤ 0.2"}, {"variant": "TCKR", "one-hybrid fitness for binding NBS DNA": 0.262}, {"variant": "PWQC", "one-hybrid fitness for binding NBS DNA": "≤ 0.2"}, {"variant": "KLAR", "one-hybrid fitness for binding NBS DNA": "≤ 0.2"}, {"variant": "KAYA", "one-hybrid fitness for binding NBS DNA": "≤ 0.2"}, {"variant": "TGCC", "one-hybrid fitness for binding NBS DNA": "≤ 0.2"}, {"variant": "YYGT", "one-hybrid fitness for binding NBS DNA": "≤ 0.2"}, {"variant": "IYPC", "one-hybrid fitness for binding NBS DNA": "≤ 0.2"}, {"variant": "VEFT", "one-hybrid fitness for binding NBS DNA": "≤ 0.2"}, {"variant": "ESFI", "one-hybrid fitness for binding NBS DNA": "≤ 0.2"}, {"variant": "CNLV", "one-hybrid fitness for binding NBS DNA": "≤ 0.2"}, {"variant": "TIKT", "one-hybrid fitness for binding NBS DNA": "≤ 0.2"}, {"variant": "ITNL", "one-hybrid fitness for binding NBS DNA": "≤ 0.2"}, {"variant": "GTMT", "one-hybrid fitness for binding NBS DNA": "≤ 0.2"}, {"variant": "SFAY", "one-hybrid fitness for binding NBS DNA": "≤ 0.2"}, {"variant": "QLNC", "one-hybrid fitness for binding NBS DNA": "≤ 0.2"}, {"variant": "YTKD", "one-hybrid fitness for binding NBS DNA": "≤ 0.2"}, {"variant": "TSSE", "one-hybrid fitness for binding NBS DNA": "≤ 0.2"}, {"variant": "KFVS", "one-hybrid fitness for binding NBS DNA": "≤ 0.2"}, {"variant": "AAPT", "one-hybrid fitness for binding NBS DNA": "≤ 0.2"}, {"variant": "AQPV", "one-hybrid fitness for binding NBS DNA": "≤ 0.2"}, {"variant": "RKRQ", "one-hybrid fitness for binding NBS DNA": 0.246}, {"variant": "RSMI", "one-hybrid fitness for binding NBS DNA": "≤ 0.2"}, {"variant": "AFFK", "one-hybrid fitness for binding NBS DNA": "≤ 0.2"}, {"variant": "MRSV", "one-hybrid fitness for binding NBS DNA": "≤ 0.2"}, {"variant": "QAEW", "one-hybrid fitness for binding NBS DNA": "≤ 0.2"}, {"variant": "CVRW", "one-hybrid fitness for binding NBS DNA": "≤ 0.2"}, {"variant": "LTIF", "one-hybrid fitness for binding NBS DNA": "≤ 0.2"}, {"variant": "VVAV", "one-hybrid fitness for binding NBS DNA": "≤ 0.2"}, {"variant": "TQVQ", "one-hybrid fitness for binding NBS DNA": "≤ 0.2"}, {"variant": "PRSW", "one-hybrid fitness for binding NBS DNA": "≤ 0.2"}, {"variant": "IKYM", "one-hybrid fitness for binding NBS DNA": "≤ 0.2"}, {"variant": "VVQG", "one-hybrid fitness for binding NBS DNA": "≤ 0.2"}, {"variant": "LDGF", "one-hybrid fitness for binding NBS DNA": "≤ 0.2"}, {"variant": "KDMV", "one-hybrid fitness for binding NBS DNA": "≤ 0.2"}, {"variant": "APQG", "one-hybrid fitness for binding NBS DNA": "≤ 0.2"}]}]}
